Sequences and labels used below:
B1: LINE1-mini (parent)
chain: GGCAGAGCUCAACACAGCGUGGCAAAGUGGCUGUGGCUAGACUGCC

The source gives no read counts; variants with many changes may rest on few reads.

The variants in this data set derive from B1. The experiment in a line: self-cleavage, relative activity (ratio to wild type); higher = more cleavage; in vitro, sequencing; the parent is a self-cleaving ribozyme.
With G1A C10A G19U C46A, the self-cleavage worked out at 0.11. In the case of G1A G2A U32A, the self-cleavage turned out to be 0.41. Consider G1A G7A U38G, for which the self-cleavage amounted to 0. In the case of G1A G17A C23A G29U, the self-cleavage worked out at 0.11.

G1A C13U G27A G44C: the self-cleavage came out at 0.25. In the case of G1A C8A G29C U38G, the self-cleavage came out at 0.06.

For G1A G17C C42U, the self-cleavage stood at 0.06. G1A A24U A26G U28C: the self-cleavage was 0.21. As for G1A A26U C31U, the self-cleavage worked out at 0.13. On to G1A C3U G17A, for which the self-cleavage turned out to be 0.25. Take G1A G2A G5U A6C C23A: the self-cleavage is 0.1. For G1A C10U G22C U28G G33U G35A C42G, the self-cleavage was 0.04. Consider G1A C8A A12C G30U C37U, for which the self-cleavage amounted to 0.03.

In the case of G1A G2C C10U G27C, the self-cleavage was 0.03. With G1A G17A C18U G36A, the self-cleavage came out at 0.05. To G1A G17A G33A C42U belongs 0.05; to G1A G21U U32A, 0.03; to G1A C3A U38C, 2.38. Regarding G1A C13A G21U U38A, the self-cleavage is 0.

With G1A G2U A6G, the self-cleavage was 0.08. Consider G1A G7U C8A C23G G35U, for which the self-cleavage is 0.57. Turning to G1A G17C A24C U32A A39G, the self-cleavage came to 0. For G1A G19C C31G G40A, the self-cleavage was found to be 0.12. Next, G1A G2U U20A: 0.14; G1A C3A G19U: 0.24. Regarding G1A C42A C46U, the self-cleavage was determined as 0.09. Consider G1A G7C C18U U20A G30U U43A, for which the self-cleavage came out at 0.04. For the variant G1A G22U G44A C46A, the self-cleavage turned out to be 0.11. For G1A G5A A14C G19C, the self-cleavage came to 0.02. To G1A C13A G33C C45U belongs 0.02; to G1A C8A C18A A26U, 1.14.

Turning to G1A G17C C37G A41C, the self-cleavage is 0.06. For G1A G19A U28A G35A A39C, the self-cleavage is 0.06. In the case of G1A C13U C18G U32C A41C, the self-cleavage worked out at 0.07. Next, G1A A25U U28C C37U C45U: 0.05; G1A C3U G40A A41U: 0.1. In the case of G1A C15U U32G C37U, the self-cleavage is 0.1. To G1A A24U C45A belongs 0.14; to G1A G5C G27C, 0.32; to G1A C13U A25U A26G G44U, 0.09.

Turning to G1A G7A G35U G40U U43G, the self-cleavage is 0.5. Turning to G1A G27A G33A U34G, the self-cleavage was 0.02. For G1A G5U A11C C37U, the self-cleavage was 0.02. Next, G1A G17C G22C U34A: 0.03; G1A C15A C23A G36U A39C A41C: 0.02; G1A A24G C37U: 0.05.

Turning to G1A C23U G27A G40C, the self-cleavage was 0.12. G1A G7C A12G G36U C37A C45A: the self-cleavage was 0.44.

For the variant G1A C10A U32A, the self-cleavage was 0.06. On to G1A C13G C23U G30A, for which the self-cleavage was found to be 0.09. As for G1A G5U G22C U43G G44U C46A, the self-cleavage stood at 0.04. As for G1A C10A C18U G35U, the self-cleavage was 0.03. Take G1A G2A C10A C23A U34C: the self-cleavage stood at 0.22. As for G1A A25U G44C, the self-cleavage is 0.29. For G1A G2A G19C C37U A39G C42A, the self-cleavage stood at 0.03. For the variant G1A C23U A26C, the self-cleavage was determined as 0.18. In the case of G1A G21U G35C, the self-cleavage is 0.11. With G1A C13U G35U C45G, the self-cleavage was determined as 0.03. Take G1A G5U C10A A11U C23U A24U: the self-cleavage turned out to be 0.04. Turning to G1A G22A A26U, the self-cleavage was found to be 0.67. As for G1A A26U U34A A41G, the self-cleavage turned out to be 0.05.

For G1A C13A G27C G36C, the self-cleavage was 0.28.

Consider G1A A24U G27U, for which the self-cleavage was found to be 0.34.

With G1A C13U C18U, the self-cleavage came to 0.09. Next, G1A C13U A25G G29A U43G: 0.04; G1A C10A A24U A41C C46A: 0.03; G1A C3U C8G U28A A39G: 1.93.

For the variant G1A A26C G36C, the self-cleavage amounted to 0.23.

As to G1A G17U A41U C46G, the self-cleavage is 0.14. As to G1A C15A G21U, the self-cleavage came to 0.07. Next, G1A C42A G44U: 0.1.

Regarding G1A C10A A14G U28A G30A C45G C46U, the self-cleavage was 0.08.

On to G1A C10A A24U, for which the self-cleavage worked out at 0.04. As for G1A G7C A24G A39C, the self-cleavage came to 0.93. Next, G1A G22C C42G: 0.09.

For G1A C3G C15A G29C A39U G40A, the self-cleavage was 0.29. Regarding G1A G2C G19A C23U U43C, the self-cleavage was determined as 0.17.

As to G1A G2U G5U U9G G17A A41C, the self-cleavage was determined as 0.13. On to G1A G2U C18U C23A G29A C31G G36C C42U, for which the self-cleavage came to 0.14. For G1A C13U U20C U38G C46A, the self-cleavage was determined as 0.02.

Take G1A G7C C15A U32G C45U: the self-cleavage came out at 0.21. Consider G1A C8U C15A A26C, for which the self-cleavage amounted to 0.92.

As to G1A A26G C31A, the self-cleavage is 0.08.

Regarding G1A G27C C31U, the self-cleavage is 0.18. In the case of G1A C8U U32C, the self-cleavage was determined as 0.02. To G1A C3U C13G A14U belongs 0.27. G1A G2U A14C G17U C37G: the self-cleavage was 0.07.

Consider G1A G5U C37A C46U, for which the self-cleavage stood at 0.01. On to G1A G2U A14U G29U C42A, for which the self-cleavage was determined as 0.01.

For the variant G1A C13G C23G, the self-cleavage worked out at 0.77. To G1A G7A C18A U20C G33U U38A belongs 0.27; to G1A A25U A26G G27A C45U, 0.12. To G1A C3G G29C C42A belongs 0.03. To G1A G22A G33U C37A G44U belongs 0.07; to G1A C8G G21C, 0.23. On to G1A G22U U32C, for which the self-cleavage came out at 0.66. Regarding G1A G27A G29U G36A C46G, the self-cleavage worked out at 0.24. G1A C3U C18A: the self-cleavage worked out at 0.1.

With G1A A26U U32G, the self-cleavage stood at 0.11. Turning to G1A G2C U9A C42G, the self-cleavage was 0.11. As for G1A C10A G40C C42A C45U, the self-cleavage stood at 0.28.

For G1A C10U G40A C45G, the self-cleavage amounted to 0.03. To G1A G22C A39U G40U C45G belongs 0.13.

Regarding G1A G2A C10G G17A, the self-cleavage was 0.14. For G1A G7C G22U A25G, the self-cleavage came to 0.17. To G1A G5A A16C belongs 0.14. Regarding G1A C15G G27A C42U, the self-cleavage was 0.05. Next, G1A C13A G19A G33A: 0.04. For G1A G7C G19U, the self-cleavage was 0.12. To G1A G7A C8A U9G C18G U32A A39C belongs 0.18; to G1A G17U G21C U32G G40C, 0.04; to G1A G17A G27A, 0.22. As for G1A A25C A26C C31G, the self-cleavage was determined as 0.03. Take G1A C3G C18G C45A: the self-cleavage amounted to 0.16. As for G1A G2A A16G, the self-cleavage is 0.24.

For the variant G1A C18U G44U, the self-cleavage is 0.77. As to G1A C18U A25G A39U, the self-cleavage came to 0.15. Consider G1A C8A A14C G19C, for which the self-cleavage was 0.19. With G1A G5U C8G U9G A25C U43A, the self-cleavage was 0.07. For the variant G1A G2A U9A A12G U32G, the self-cleavage worked out at 0.07. For G1A G27U C37A, the self-cleavage worked out at 0.02. As to G1A G22U C23G U32A, the self-cleavage turned out to be 0.05. On to G1A C18A A24C C37U, for which the self-cleavage amounted to 0.1.

Consider G1A C10U G21U, for which the self-cleavage came to 0.42. To G1A C37U C46A belongs 0.06; to G1A G2U C10U A14C C18U U28A C42G, 0.03; to G1A C13A U20C U32C G36A, 0.05. Next, G1A C8A G30C: 0.16; G1A G5C G19U A25C C31G: 0.05.

G1A G7A A14C G19U U38A: the self-cleavage was found to be 0.19. For G1A G7C G19U G21A C45A, the self-cleavage is 1.39. As to G1A C3U A25C U38C A41U G44C, the self-cleavage was 0.6. For G1A G7C A14G C37U A39G, the self-cleavage turned out to be 0. As for G1A G2U A26G, the self-cleavage worked out at 0.07.

For the variant G1A C8G G21A G22C C31U G33U, the self-cleavage came to 0.15. To G1A C8A G29U U32G U38G belongs 1.58. On to G1A G5A A6U G21U, for which the self-cleavage was 0.1. Consider G1A C3G G27A G30C, for which the self-cleavage is 1.52. Regarding G1A C8U C15A C23A A24C, the self-cleavage amounted to 0.06.

With G1A C3U G5U G33A, the self-cleavage worked out at 0.3. Consider G1A G21C C23G U28C U32A, for which the self-cleavage is 0.15.

Regarding G1A G5C G40U, the self-cleavage was 0.11.

As to G1A G17U U28A G36A C45G, the self-cleavage was 0.01.

For the variant G1A C15A C37A, the self-cleavage came to 0.04. As to G1A G2A G33U C37G, the self-cleavage worked out at 0.18.

Turning to G1A C23U G27A U38G, the self-cleavage came to 0.01. In the case of G1A G5U C13G C23A G29U C37U, the self-cleavage amounted to 0.12. Next, G1A G2C C10A G30U G35U: 0.01; G1A C18G G19C G30A A41C: 0.13; G1A G7U C13A: 1.23. As to G1A C8G G19U U20G G36C, the self-cleavage was 0.45. Turning to G1A C18A G44U, the self-cleavage stood at 0.15. Turning to G1A G2C G7C C8U C13A G17A U20G G29C, the self-cleavage worked out at 0.01. With G1A C10U A12G C42G, the self-cleavage came to 0.1. As to G1A A25C C37A C46A, the self-cleavage is 0.13. Regarding G1A C3U G22U C23A A24C C31G, the self-cleavage worked out at 0.79.

Turning to G1A G21C U38A, the self-cleavage is 0.98. To G1A C3G A11G A16U A25U C31G belongs 0.03; to G1A C10A G33A, 0.04. In the case of G1A C18U A26G U28A, the self-cleavage came to 0.08. With G1A C10U A16C U20C G29C G36A U38A C46A, the self-cleavage came to 0.02. In the case of G1A G2C A16C G22A G29U A41U, the self-cleavage came to 0.06. Consider G1A C8U U20G A25U G27A, for which the self-cleavage was 0.31. As for G1A G2C A12U U34G, the self-cleavage came to 0.05. Next, G1A G2U G7C: 0.11; G1A C23A G36A: 0.11; G1A A24C G30C G36C: 0.04.

For the origin of these results see the RNAGym collection of RNA variant scans (doi:10.7554/elife.90254).
